In the supplement of paper PMC7125110:
± gives the standard error. Variants at the floor of the assay are shown more often than the library holds them.

B1: glmS ribozyme (parent)
chain: AUAAAAGCGCCAGAACUACAGAAAUGUAGUUGACGAGGAGGAGGUUUAUCGAAUUUUCGGCGGAUGCCUCCAAA

Variants of: B1
Assay: self-cleavage kobs at 2500 uM GlcN6P; higher = faster cleavage; RNA array
Settings: with glucosamine-6-phosphate
How it was run: (§1)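 E. coli RNA polymerase transcribed barcoded ribozyme variants in situ on sequenced MiSeq chips, which were tracked via a hybridised Cy3 probe at 37 °C. Tiles were imaged over ~14 h after glucosamine-6-phosphate (40 μM to 10 mM) in HEPES/KCl/Mg(OAc)2 buffer was flowed in. Normalised per-tile medians were fit to one- or two-exponential decays for kobs, and kcat and KM came from weighted Michaelis–Menten fits.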

Row | Variant | self-cleavage kobs at 2500 uM GlcN6P [s⁻¹]
1 | C16U U46C C61G | < 1e-05
2 | C16U U57G G62U | < 1e-05
3 | A28U A36U U46A | < 1e-05
4 | G29A A39C G59A | < 1e-05
5 | G29A C34A G66C C71G | < 1e-05
6 | G29A C50G U55A | 0.000211 ± 8.8e-05
7 | G29A G32C G43C U57G C68U | < 1e-05
8 | G29A G35C C58U | < 1e-05
9 | G29A U57G C70G | 0.000123 ± 5e-05
10 | G29C A33U G41A | < 1e-05
11 | G29C A36C G62A C71A | < 1e-05
12 | G29C A36G G38U A53G | < 1e-05
13 | G29C A42U U47A | < 1e-05
14 | G29C A48U G60C | < 1e-05
15 | G29C C34A G41A | < 1e-05
16 | G29C G32U C67A | 4.32e-05 ± 2e-05
17 | G29C G62C U65A | < 1e-05
18 | G29C U30G C34U U47C A48C G63A C70A | < 1e-05
19 | G29C U31G | < 1e-05
20 | G29U A33U G63A A64U | < 1e-05
21 | G29U C34A G37U G38C C67U | < 1e-05
22 | G29U C34U U55G C67U | < 1e-05
23 | G29U G32C U65C | < 1e-05
24 | G29U G37A G40U U57G | < 1e-05
25 | G29U G38C G41U C70G | < 1e-05
26 | G29U G38U G66U C68A U69G | 0.000147 ± 5.8e-05
27 | G29U U30A G35A C70A | < 1e-05

Row | Variant | self-cleavage kobs at 2500 uM GlcN6P [s⁻¹]
28 | G29U U54A C70A | 6.05e-05 ± 3e-05
29 | G29U U57A | 4.22e-05 ± 1.5e-05
30 | U30A G35A G66A | < 1e-05
31 | U30A G40C C58A G63A C70U | < 1e-05
32 | U30A G41U C70G | 0.00387 ± 0.0011
33 | U30A G63A U69C | < 1e-05
34 | U30C C34G G44C U57G C70U | < 1e-05
35 | U30C G32U G43U | < 1e-05
36 | U30C G44U A64U C70G | < 1e-05
37 | U30C G44U U45G U69G | < 1e-05
38 | U30C U45G A64U | < 1e-05
39 | U30G A33C G66U | < 1e-05
40 | U30G G43U A52G C67A U69G | < 1e-05
41 | U31A G41C C58G | < 1e-05
42 | U31C A33U C67G U69A | < 1e-05
43 | U31C A48U U54A U65A | < 1e-05
44 | U31C A53C U55C | 0.000164 ± 5e-05
45 | U31C A64U G66U | < 1e-05
46 | U31C G35U A42G | < 1e-05
47 | U31C G37C A48G U49G U54C C71A | < 1e-05
48 | U31G C34U C61G G63C | < 1e-05
49 | U31G G40A A48C | < 1e-05
50 | U31G G40A G41U A53C U54A C58G C67U | < 1e-05
51 | U31G G43C U55G C70U | < 1e-05
52 | U31G G44U C70G | < 1e-05
53 | G32A A42C G62U | < 1e-05
54 | G32A C50G C71U | 0.000168 ± 7.3e-05

Row | Variant | self-cleavage kobs at 2500 uM GlcN6P [s⁻¹]
55 | G32A G37A G44U U46C U49C | < 1e-05
56 | G32A G40A U69G | < 1e-05
57 | G32A U49A U65G | < 1e-05
58 | G32C A33C A36C U65G | < 1e-05
59 | G32C A36G U49A A53G C68U | < 1e-05
60 | G32C A42G U57G G62A C71A | < 1e-05
61 | G32C C34A A39C A42G U57C | < 1e-05
62 | G32U A36G G51C C61G U65A | < 1e-05
63 | G32U A42G U55C U56C C58G | 5.49e-05 ± 1.3e-05
64 | G32U G35U C50U | < 1e-05
65 | G32U G35U C58A G62U C70U | < 1e-05
66 | G32U G40C G43U C50U | < 1e-05
67 | A33C A39U U46A A53U G59U | < 1e-05
68 | A33C A48C C71U | < 1e-05
69 | A33C A52C C70G | < 1e-05
70 | A33C C34G A48U | < 1e-05
71 | A33C C58U C71G | < 1e-05
72 | A33C U47C A64U | < 1e-05
73 | A33G A36U U47A | < 1e-05
74 | A33G A39U U46A C61U | < 1e-05
75 | A33G A42U U47A A53G | < 1e-05
76 | A33G G51C C71U | < 1e-05
77 | A33G G60U A64G U69A | < 1e-05
78 | A33U A39G G41A C58U | < 1e-05
79 | A33U A42C U49A | < 1e-05
80 | A33U C34A A42U G51C | < 1e-05

Variants of: B1
Assay: self-cleavage kobs at 10000 uM GlcN6P; higher = faster cleavage; RNA array
Settings: with glucosamine-6-phosphate
How it was run: as §1

Row | Variant | self-cleavage kobs at 10000 uM GlcN6P [s⁻¹]
81 | G29C A33U G41A | < 1e-05
82 | G29C G32U C67A | 0.00017 ± 2.6e-05
83 | U31G G43C U55G C70U | < 1e-05
84 | G32A G40A U69G | < 1e-05
85 | G32U G35U C50U | < 1e-05
86 | A33C A52C C70G | < 1e-05
